# Measured values from paper PMC4336329 (PLoS ONE, 2015).
# Out of some 310,000 compounds screened, about 14,000 (4.5%) showed an effect of 50% or more. The effect is printed as a negative number. Some of the results follow.
# Molecular target: human ether-à-go-go-related gene (hERG) potassium channel (human, UniProt Q12809)
# Assay: primary screen, population patch clamp on CHO cells stably expressing hERG
# 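Also: peak tail current of the secondary pulse compared with the same well before compound.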
# human ether-à-go-go-related gene (hERG) potassium channel, sequence (Q12809 whole entry, looked up): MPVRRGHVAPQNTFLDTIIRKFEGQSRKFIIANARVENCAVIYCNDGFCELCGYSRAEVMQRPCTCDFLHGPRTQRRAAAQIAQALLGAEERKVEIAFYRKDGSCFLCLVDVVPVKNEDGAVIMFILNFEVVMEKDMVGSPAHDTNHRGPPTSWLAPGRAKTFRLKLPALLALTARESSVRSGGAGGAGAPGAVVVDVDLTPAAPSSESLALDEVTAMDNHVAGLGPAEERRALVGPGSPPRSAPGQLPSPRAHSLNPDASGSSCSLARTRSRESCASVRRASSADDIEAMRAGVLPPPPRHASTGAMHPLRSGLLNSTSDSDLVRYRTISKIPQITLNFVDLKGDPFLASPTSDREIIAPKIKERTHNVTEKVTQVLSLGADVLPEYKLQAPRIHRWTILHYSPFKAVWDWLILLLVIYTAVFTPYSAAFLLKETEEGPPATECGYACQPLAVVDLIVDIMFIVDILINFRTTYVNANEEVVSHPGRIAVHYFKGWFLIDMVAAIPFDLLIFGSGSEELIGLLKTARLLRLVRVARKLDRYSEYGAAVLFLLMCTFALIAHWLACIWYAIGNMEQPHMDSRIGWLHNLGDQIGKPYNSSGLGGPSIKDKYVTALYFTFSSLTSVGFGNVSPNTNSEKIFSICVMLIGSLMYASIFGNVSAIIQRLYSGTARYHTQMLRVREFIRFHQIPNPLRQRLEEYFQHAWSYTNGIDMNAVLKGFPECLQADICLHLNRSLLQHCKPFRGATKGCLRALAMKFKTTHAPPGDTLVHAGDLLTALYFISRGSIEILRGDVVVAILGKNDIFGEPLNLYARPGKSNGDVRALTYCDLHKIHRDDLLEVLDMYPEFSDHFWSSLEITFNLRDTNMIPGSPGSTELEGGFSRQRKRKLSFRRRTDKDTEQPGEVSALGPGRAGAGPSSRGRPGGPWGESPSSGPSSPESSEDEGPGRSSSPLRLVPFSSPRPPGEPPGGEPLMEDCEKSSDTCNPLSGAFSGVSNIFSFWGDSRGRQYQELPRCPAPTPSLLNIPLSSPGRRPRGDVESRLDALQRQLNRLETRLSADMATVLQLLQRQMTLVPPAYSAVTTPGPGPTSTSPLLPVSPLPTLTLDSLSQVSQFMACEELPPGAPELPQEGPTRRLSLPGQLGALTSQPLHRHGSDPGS
row,Compound,"hERG current change (%, negative = inhibition) at 10uM"
1,CC(C)(/C=N/O)N(O)C=C1C=CC(=O)C=C1,5.81%
2,C=CCn1c(SCC(=O)NCCO)nc2sc(C)c(C)c2c1=O,11.6%
3,Cc1ccc(N2CCCn3c2cc(C)c(C#N)c3=O)cc1Cl,-22.8%
4,CCOC(=O)C1=C(CN2CCc3ccccc32)NC(=O)NC1c1ccc(Cl)cc1 (centres unmarked),-0.598%
5,COc1ccccc1/C=C/C(=O)NCC(=O)n1nc(C)cc1C,11.3%
6,CC(=O)Nc1ccc(NS(=O)(=O)c2ccc3[nH]c(=O)[nH]c3c2)cc1,6.32%
7,O=C(O)c1csc(-c2cccs2)n1,6.72%
8,COc1ccc(C)cc1NC(=O)CCNS(=O)(=O)c1ccc2c(c1)CC(C)N2C(C)=O (centres unmarked),1.85%
9,O=c1ccccn1CCOc1ccc(Cl)cc1,12.3%
10,CCCCn1c(N)c(N(CC)C(=O)c2cccc(OCc3ccccc3)c2)c(=O)[nH]c1=O,-9.67%
11,Cc1cc(C)c(NC(=O)CNC(=O)COC(=O)Cc2ccccc2C)c(C)c1,8.67%
12,CC(=O)C1=C(O)C(=O)N(CCCn2ccnc2)C1c1ccc(Br)cc1 (centres unmarked),15.6%
13,CN(C(=O)CSc1nnc2ccccn12)c1c(N)n(Cc2ccccc2)c(=O)[nH]c1=O,4.42%
14,O=C(c1ccc(Cl)cc1[N+](=O)[O-])N1CCN(c2ccccn2)CC1,-34%
15,COc1ccc(Cl)cc1Nc1nc(-c2sc(NC(=O)c3ccccc3)nc2C)cs1,17.4%
16,Cc1cc(-c2ccc(C)c(S(=O)(=O)NCC3CCN(Cc4ccccc4F)CC3)c2)on1,-52.8%
17,O=C(Cn1nnc(-c2ccccc2Cl)n1)N/N=C/c1ccc(-c2cccc(Cl)c2)o1,2.26%
18,O=C(N/N=C/c1ccco1)c1ccc(N2CCCC2=O)cc1,2.45%
19,COC(=O)CSc1nnc(-c2ccc(OC)c(OC)c2)o1,9.19%

row,Compound,"hERG current change (%, negative = inhibition) at 10uM"
1,NC(=O)NC(=O)CN1c2cccc3cccc(c23)S1(=O)=O,-4.59%
2,O=C(Nc1cccc(Cl)c1N1CCCC1)c1ccco1,6.11%
3,O=C(O)c1ccc(NCc2cccc(Br)c2)cc1,5.85%
4,O=C(CCC(=O)N(CC(=O)NC1CCCC1)c1cccc(F)c1)Nc1nccs1,-9.41%
5,CCOC(=O)N1CCN(C(=O)c2ccc(CS(=O)Cc3ccc(C)cc3)o2)CC1 (centres unmarked),7.08%
6,CC(=O)c1ccc(S(=O)(=O)NCCC(=O)OCC(=O)NCCc2ccccc2)cc1,-15.1%
7,CCC(=O)c1ccc(O)c(OC)c1,-4.3%
8,Cc1ccc2c(c1)N(CC(=O)NCc1cccnc1)C(=O)CO2,-0.769%
9,CCOC1=C/C(=C/c2c(N)n3nc(CC(=O)N4CCCCC4)sc3nc2=O)C=CC1=O,20.4%
10,CC1=C(C(=O)OC2CCCCC2)C(c2ccc(C)o2)C2=C(CC(C)(C)CC2=O)N1 (centres unmarked),-5.15%
11,Cc1cc(C(=O)NCc2cccnc2)n(-c2ccccc2)n1,-9.81%
12,CCn1c(SCC(=O)N2CCOCC2)nc2c(c1=O)SC(C)C2 (centres unmarked),7.5%
13,O=C(Cc1c[nH]c2ccccc12)N1CCc2ccccc21,1.03%
14,Cc1ccc(OCCN2CCN(c3nc(NCc4ccco4)c4ccccc4n3)CC2)cc1,-62.6%
15,OCCNc1nc2ccccc2n1CC(O)c1ccccc1 (centres unmarked),-2.73%
16,CN(C)C(=N)c1n[nH]nc1SCc1ccccc1.Cl,19.3%
17,COc1cc(OC)c2c(-c3ccccc3)cc(=O)oc2c1C(CCN1CCCC1)c1ccc2c(c1)OCO2 (centres unmarked),-46.9%
18,CCOc1ccc2[nH]c(=O)c(CN(CCO)C(=O)c3ccccc3F)cc2c1,-0.495%
19,COC(=O)c1ccccc1NC(=O)Nc1ccc(C)cn1,17.8%

row,Compound,"hERG current change (%, negative = inhibition) at 10uM"
1,COc1ccc(OCC(O)CNC(=O)/C=C/c2cccc([N+](=O)[O-])c2)cc1 (centres unmarked),17.6%
2,C=CCSc1nc(C)cc(C(=O)OCC)c1C#N,-28.4%
3,Cc1cccc(N(CC(=O)NC2CCCC2)C(=O)c2nsc(Cl)c2Cl)c1C,2.47%
4,O=C1C2C(C(=O)N1Cc1ccco1)C1C=CC2C12CC2 (centres unmarked),5.33%
5,CC(C)(C)c1ccc(OCCC(=O)Nc2cccc(S(=O)(=O)N3CCOCC3)c2)cc1,-5.84%
6,CCOC(=O)CN(C(=O)CSc1nnc2c(n1)[nH]c1ccccc12)c1ccccc1,-5.55%
7,Cc1c(NC(=O)C2CCCN2C(=O)c2cccs2)c(=O)n(-c2ccccc2)n1C (centres unmarked),14.2%
8,CN(Cc1cnc2nc(N)nc(N)c2n1)c1ccc(C(=O)N[C@@H](CCC(=O)O)C(=O)O)cc1.O,16.5%
9,CCN(C(=O)c1cccc(S(=O)(=O)N(C)C)c1)C12CC3CC(CC(C3)C1)C2,14.3%
10,COc1ccc2nc(NC(=O)c3ccccc3C(=O)O)sc2c1,29.6%
11,Cc1cc(C(=O)OCC(=O)Nc2c(F)cccc2F)c(C)n1-c1ccccc1,8.99%
12,CC(=O)C1=C(c2ccccc2)NC(=O)NC1c1ccc(O)c(Cl)c1 (centres unmarked),17.6%
13,C1COCCO1.Nc1c(C(=O)O)sc2nc(-c3ccccc3)cc(-c3ccccc3)c12,12.3%
14,O=C(NC1CC1)c1cc2c(s1)CS(=O)(=O)C2,10.2%
15,COc1ccc(C2(C)NC(=O)N(CC(=O)c3ccc4c(c3)OCO4)C2=O)cc1 (centres unmarked),16.8%
16,Cc1cc(C)c(S(=O)(=O)Nc2ccc(-c3cn4ccccc4n3)cc2)c(C)c1,11%
17,COC(=O)c1ccc(C2OCC(C)(C)CO2)cc1,5.97%
18,COC(=O)c1c(N=CN(C)C)c(C#N)c2n1CCCC2,-4.02%
